Assay results from the supplement of paper PMC10338343.
± gives the standard deviation. This is a selection; strong and weak results do not stand in their true shares.

Test system: MIWI (PIWIL1) piRISC loaded with L1MC piRNA (30 nt)
Test: pre-steady-state target cleavage rate (min^-1); MIWI and MILI are mouse PIWI proteins and EfPiwi is from a freshwater sponge; tags in brackets are library labels; higher = faster piRNA-guided slicing of the target
Details: guide: L1MC piRNA 5'p-UAACUAAAUACUAUGCAAGCUGUAGGUCCU
In short: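 Cleave-'n-Seq reactions paired 0.1 nM transcribed, DNA-blocked target RNA library with 1 nM active affinity-purified piRISC holding one synthetic guide, plus or minus 500 nM GTSF1 partner protein, in HEPES–potassium acetate buffer at 33 °C for 0–8 or 0–960 min. After sequencing of uncleaved targets and normalisation to depth and weakly complementary targets, the pre-steady-state cleavage rate was taken from a burst-and-steady-state fit. Three trials were pooled, and k3 was capped at 0.0001 min^-1.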

[1] = auxiliary factor: 500 nM mouse GTSF1
[2] = auxiliary factor: none (no GTSF1)

Sequence | pre-steady-state target cleavage rate [1] | pre-steady-state target cleavage rate [2]
UCGACCUACAGCUUGCAUUGUAAUUAGUUA | 0.48 ± 0.027 | 0.0109 ± 0.003
UCCUGGAUCUGCUUGCAUAGUAUUUAGAUA | 0.178 ± 0.018 | 0.0113 ± 0.0032
UCCUGGAUGAGCUAGCAUACUAUUUAGUUA | 0.145 ± 0.021 | 0.00424 ± 0.0027
UCCUGCUUCAGCUUGCAUAGUAUUUACAAA | 0.435 ± 0.066 | 0.00357 ± 0.0025
UGGACGUACAGCUUGGAUAGUAUUUAGUUA | 1.4 ± 0.054 | 0.0597 ± 0.01
UCGACCUACAGCAUGCAUAGUAUUUACUUA | 0.545 ± 0.046 | 0.0246 ± 0.0054
UCCUGGAACAGCUUGCAUUGUAUUUACUUA | 0.367 ± 0.039 | 0.0192 ± 0.0055
UCCUCCUAAAGCUUGCAUAGUAUUUAGUUA | 0.335 ± 0.04 | 0.0256 ± 0.0043
UCCUGGAUGUGCUUGCAUUGUAUUUAGUUA | 0.0683 ± 0.01 | 0.016 ± 0.0042
UCCUGGAUCAGCAUGCAUAGAAUUUAGUUA | 0.11 ± 0.013 | 0.00583 ± 0.0026
AGGACCUACAGCUUGGAUAGUAAUUAGUUA | 0.857 ± 0.054 | 0.0269 ± 0.0063
UGGAGGAACAGCUUGCAUAGUAUUUAGUUA | 1.26 ± 0.049 | 0.0795 ± 0.015
UCCUGGAUGUGCUUGCAUACUAUUUAGAUA | 0.0129 ± 0.0051 | 0.00516 ± 0.0023
UCCUGCUACAGCAUGCAUAGUAUUUACUUA | 0.486 ± 0.056 | 0.0113 ± 0.0027
UCGACUACAGCUUGCAUAGUAUUUAGUUA | 1.3 ± 0.049 | 0.0713 ± 0.012
UGGACCUACAGCUUGCAUACUAUAUAGUUA | 0.153 ± 0.013 | 0.0155 ± 0.004
UCCUGGAUCAGGUUGCAUACUAUUUAGUUA | 0.1 ± 0.01 | 0.00531 ± 0.0018
UCCUGGAUGUGCUUGCAUAGUAUUUGAGUUA | 0.157 ± 0.02 | 0.0219 ± 0.0046
UCCUGGAUGUCCUUGCAUAGUAUUUGGUUA | 0.0543 ± 0.0099 | 0.0099 ± 0.0026
UCGACCUGCAGCUUGCAUAGUAUUUAGUUA | 1.41 ± 0.072 | 0.0674 ± 0.013

Sequence | pre-steady-state target cleavage rate [1] | pre-steady-state target cleavage rate [2]
UCCACCUACAGCUUGCAUAGUAUUUAGUUU [g2:g27:cont:t1U] | 1.1 ± 0.04 | 0.0848 ± 0.018
AGGACCUACAGGUUGCAAAGUAUUUAGUUA | 1.21 ± 0.045 | 0.0226 ± 0.0041
AGGACCUACAGCAUGCAAAGUAUUUAGUUA | 1.11 ± 0.043 | 0.0157 ± 0.0037
UCCUGGAACAGCUUGCAAAGUAUUUACUUA | 0.351 ± 0.047 | 0.0229 ± 0.0063
UCCACCUAGAGCUUGGAUAGUAUUUAGUUA | 0.716 ± 0.045 | 0.0332 ± 0.0057
UCCUCCUACACCUUGCAUAGUAUUUACUUA | 0.31 ± 0.066 | 0.022 ± 0.005
UCCUGGAUCAGCUAGCAUAGUAAUUAGUUA | 0.239 ± 0.023 | 0.00493 ± 0.0021
UCCUCCUACAGCUUGCAUAGUAUUUGGUUA | 0.87 ± 0.029 | 0.034 ± 0.0071
UCCUGGAUCAGCUUGCAUACUAUUUUGUUA | 0.101 ± 0.013 | 0.0125 ± 0.0033
AGGGCCUACAGCUUGCAUAGUAUUUAGUUA | 1.39 ± 0.061 | 0.106 ± 0.023
UCGAGCUACAGCUUGCAUUGUAUUUAGUUA | 0.903 ± 0.029 | 0.0344 ± 0.0094
AGGACCUACAGCAUGGAUAGUAUUUAGUUA | 1.57 ± 0.086 | 0.0502 ± 0.0089
UCCACCUUCAGCUUGCAAAGUAUUUAGUUA | 1.17 ± 0.038 | 0.0305 ± 0.0063
UCCUGGAACAGCUUUCAUAGUAUUUAGUUA | 0.453 ± 0.026 | 0.019 ± 0.0045
UCCUGGCACAGCUUGCAUAGUAUUUAGUUA | 0.456 ± 0.081 | 0.0452 ± 0.011
AGGACCUACAGCUUGGAUAGUAUUUAGUUA | 1.67 ± 0.052 | 0.0813 ± 0.013
UCCUGCUACAGCAUGCAUUGUAUUUAGUUA | 0.719 ± 0.06 | 0.00906 ± 0.0033
UCCUGGUACAGCUUGUCAUAGUAUUUAGUUA | 0.201 ± 0.02 | 0.00457 ± 0.0026
UCCUGGUACAGCUCUGCAUAGUAUUUAGUUA | 0.921 ± 0.051 | 0.0202 ± 0.0059
UCCUCCAACAGCUUGCAUACUAUUUAGUUA | 0.39 ± 0.017 | 0.0364 ± 0.0072

Sequence | pre-steady-state target cleavage rate [1] | pre-steady-state target cleavage rate [2]
UCCACCUACAGCUUGCAUUGAAUUUAGUUA | 0.198 ± 0.019 | 0.00668 ± 0.002
AGGACCUUGUGCUUGCAUAGUAUUUAGAAA | 0.176 ± 0.024 | 0.00889 ± 0.0024
UGGACCUACAGCUAGGAUAGUAUUUAGUUA | 1.39 ± 0.068 | 0.00938 ± 0.0019
UGCACCUACAGCUUGCAUACUAUUUAGUUA | 0.355 ± 0.037 | 0.0214 ± 0.0031
UCCUGGAACAGCUUGCAUUGUUUUUAGUUA | 0.0622 ± 0.009 | 0.00871 ± 0.0034
UCCUCCUACAGGUUGCAUAGUAUUUAGUAA | 0.845 ± 0.061 | 0.0122 ± 0.0028
AGGACCUACAGCUUGGAUACUAUUUAGUUA | 0.222 ± 0.018 | 0.0227 ± 0.0044
UCGACCAACAGCUUCCAUAGUAUUUAGUUA | 0.0723 ± 0.016 | 0.0035 ± 0.0011
UCCACCUACAGCUUGCAUACUUUUUAGUUA | 0.0393 ± 0.0087 | 0.00562 ± 0.0019
UCCUGGAUGUGCUUGCAUAGUAUUUAAUUA | 0.114 ± 0.024 | 0.021 ± 0.0066
UCCUGGUACAGCUUGCUAAGUAUUUAGUUA | 0.15 ± 0.014 | 0.00792 ± 0.0027
UCCUGGAUCAGCUUGCAAAGUAUUUAGAAA | 0.256 ± 0.026 | 0.00556 ± 0.0027
UCGACCUACAGCAUGCAUUGUAUUUAGUUA | 0.944 ± 0.04 | 0.0101 ± 0.0026
AGGUCCUACAGCUUGCAUACUAUUUAGUUA | 0.371 ± 0.019 | 0.0281 ± 0.0054
UCCUCCUACAGCUUGCAUAGUAUUUAGUA | 0.442 ± 0.034 | 0.00753 ± 0.0027
UCGACCUACAGCUUGCAUAGAAUUAAGUUA | 0.345 ± 0.038 | 0.00916 ± 0.0029
UCCACCUACACCUUGCAUACUAUUUAGUUA | 0.227 ± 0.033 | 0.0219 ± 0.0031
AGGAGCUUCAGCUUGCAUAGUAUUUAGUUA | 1.48 ± 0.047 | 0.0864 ± 0.015
UCGUCCUACAGCUAGCAUAGUAUUUAGUUA | 0.705 ± 0.029 | 0.0207 ± 0.0032
UCCUGGUAGAGCUUGCAUAGUAAUUAGUUA | 0.415 ± 0.038 | 0.0144 ± 0.005
